In PMC4336329 (PLoS ONE, 2015):
About 14,000 (4.5%) of roughly 310,000 compounds showed an effect of 50% or more. The effect is printed as a negative number. Some of the results follow.

target: human ether-à-go-go-related gene (hERG) potassium channel (human, UniProt Q12809); experiment: primary screen, population patch clamp on CHO cells stably expressing hERG
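Also: peak tail current of the secondary pulse compared with the same well before compound.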

Chain of human ether-à-go-go-related gene (hERG) potassium channel (Q12809 whole entry, looked up): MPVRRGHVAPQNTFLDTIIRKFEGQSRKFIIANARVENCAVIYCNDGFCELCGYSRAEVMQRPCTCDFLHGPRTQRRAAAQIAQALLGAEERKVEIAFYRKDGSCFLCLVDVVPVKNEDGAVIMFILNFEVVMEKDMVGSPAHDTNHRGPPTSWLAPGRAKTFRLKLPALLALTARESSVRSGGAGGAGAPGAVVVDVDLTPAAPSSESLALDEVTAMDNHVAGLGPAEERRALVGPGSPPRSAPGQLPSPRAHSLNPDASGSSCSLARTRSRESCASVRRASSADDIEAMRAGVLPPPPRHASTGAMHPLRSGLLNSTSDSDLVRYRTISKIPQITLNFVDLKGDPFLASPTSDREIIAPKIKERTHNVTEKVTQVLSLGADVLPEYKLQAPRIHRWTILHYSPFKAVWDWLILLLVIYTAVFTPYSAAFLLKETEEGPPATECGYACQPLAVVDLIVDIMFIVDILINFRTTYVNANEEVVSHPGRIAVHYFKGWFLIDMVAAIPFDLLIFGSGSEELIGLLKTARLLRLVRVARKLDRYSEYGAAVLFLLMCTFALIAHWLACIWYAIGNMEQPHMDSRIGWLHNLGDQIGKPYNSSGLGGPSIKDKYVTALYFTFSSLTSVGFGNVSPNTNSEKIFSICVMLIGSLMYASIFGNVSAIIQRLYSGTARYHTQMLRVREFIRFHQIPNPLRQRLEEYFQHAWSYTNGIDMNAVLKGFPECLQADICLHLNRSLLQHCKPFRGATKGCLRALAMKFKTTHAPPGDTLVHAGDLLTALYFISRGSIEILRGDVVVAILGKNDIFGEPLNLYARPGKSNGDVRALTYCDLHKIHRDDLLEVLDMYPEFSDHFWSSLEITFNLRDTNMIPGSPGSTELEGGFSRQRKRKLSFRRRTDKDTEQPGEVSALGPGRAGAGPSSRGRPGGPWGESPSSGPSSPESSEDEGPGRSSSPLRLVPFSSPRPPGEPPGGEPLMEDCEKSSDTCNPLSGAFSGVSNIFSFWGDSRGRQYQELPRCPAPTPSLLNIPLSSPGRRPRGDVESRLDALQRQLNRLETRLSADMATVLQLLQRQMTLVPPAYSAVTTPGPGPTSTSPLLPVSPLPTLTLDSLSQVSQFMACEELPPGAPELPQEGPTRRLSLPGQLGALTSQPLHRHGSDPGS

Row | Structure (SMILES) | hERG current change (%, negative = inhibition) at 10uM [%]
1 | COc1ccc(NC(=O)CCC2COc3ccccc3O2)c(OC)c1 (stereo not shown) | -13.5
2 | C/C(CC(=O)N1CCN(C=O)CC1)=N\NC(=O)c1ccc(Cl)cc1 | 10.3
3 | Cc1cc2ccccn2c1C(=O)c1ccncc1 | -6.15
4 | CCCN(S(=O)(=O)c1ccccc1F)S(=O)(=O)c1ccccc1Br | 5.05
5 | Cn1c(SCC(=O)NCCNC(=O)CSc2nnc(C(F)(F)F)n2C)nnc1C(F)(F)F | 0.297
6 | COc1ccc(CCNC(=S)NC(=O)c2ccc(Br)cc2)cc1OC | 16.2
7 | c1ccc(CSc2nnc(-c3cccs3)o2)cc1 | -13.5
8 | CSc1nnc([C@@H]2CCCN2C(=O)OC(C)(C)C)o1 | 19.2
9 | C=CCn1c(=O)/c(=C\c2ccccn2)s/c1=C(/C#N)C(=O)NCC1CCCO1 (stereo not shown) | -3.51
10 | Cc1c(-n2c(SCC(C)C)nc3ccccc3c2=O)c(=O)n(-c2ccccc2)n1C | 0.437
11 | CC(C)OP(=O)(OC(C)C)C(NC(=O)c1ccccc1)C(N)=O (stereo not shown) | -3.65
12 | O=[N+]([O-])c1ccc(NC2CCN(Cc3ccccc3)CC2)c([N+](=O)[O-])c1 | -85.4
13 | COc1cc(/C=c2\sc3nc(=O)c(-c4ccccc4)nn3c2=O)ccc1OCCC(C)C | -13.4
14 | O=S(=O)(c1ccccc1)N1CCN(C/C=C/c2ccccc2)CC1 | -22
15 | NC(=S)N/N=C/c1c(O)c(Br)cc2oc3c(c12)CCCC3 | 2.84
16 | CCOC(=O)C1=C(N)N(c2cc(S(=O)(=O)N3CCOCC3)ccc2Cl)C(=O)C1 | 5.74
17 | Cc1c(NC(=O)/C(C#N)=C/c2ccc(-c3ccccc3Cl)o2)c(=O)n(-c2ccccc2)n1C | -30.5
18 | N#Cc1nc(-c2cccc3ccccc23)oc1N1CCCCC1 | 0.975
19 | CCCCc1cc(=O)oc2cc(OCC(=O)NCCN3CCOCC3)c(Cl)cc12 | 1.96
20 | COc1ccccc1C(=O)NC(=O)COc1ccc(Cl)cc1Cl | -10
21 | CN(C)C(=O)/C(=C\c1cccc(Oc2ccccc2)c1)NC(=O)c1ccccc1 | -14.6
22 | CN(CC(=O)Nc1ccc(F)c(F)c1F)C(=O)CCCSc1nc2ccccc2[nH]1 | -12.5

Row | Structure (SMILES) | hERG current change (%, negative = inhibition) at 10uM [%]
23 | Clc1ccc(-c2nnc(COc3ncnc4sccc34)o2)cc1 | -10.5
24 | Cc1ccc2c(c1C)NC(C(=O)O)C1CC=CC21 (stereo not shown) | 12
25 | COc1ccccc1CNC(=O)c1ccc(-c2ccccc2)cc1 | 13.2
26 | CCC1CCCCN1C(=O)c1sc2nc(C)nc(N(CC)CC)c2c1C (stereo not shown) | -26.3
27 | CCc1cccc(NC(=O)c2cnn(-c3ccccc3)c2C)c1 | -56
28 | COc1cc(/C=C/c2cc(OC(C)=O)c3ccccc3n2)c(OC(C)=O)c([N+](=O)[O-])c1 | 5.5
29 | CC(C)c1ccc(/C=C/C(=O)O)cc1 | 12.5
30 | CS(=O)(=O)c1ccc(C(=O)OCC(=O)NNC(=O)COc2ccc(Cl)cc2)cc1 | 10.1
31 | CC1(c2ccc(OC(F)F)cc2)NC(=O)N(CC(=O)NC2CCCCC2)C1=O (stereo not shown) | -39.2
32 | COc1ccc(CCCc2nnc(SCC(=O)Nc3ccc(C)c(C)c3)o2)cc1 | 7.64
33 | COc1ccc(NC(=O)N2CCC(c3nc(-c4cccs4)no3)CC2)cc1 | -17.5
34 | CC(=O)c1c(C)nc2ccc(Br)cc2c1-c1ccccc1 | 2.03
35 | Cc1csc(NC(=O)CS(=O)(=O)Cc2ccccc2)n1 | -4.71
36 | COC(=O)c1ccc(CN(C)S(=O)(=O)c2cccs2)cc1 | 12.5
37 | Fc1ccc(C2=CC(c3ccc(Br)o3)n3ncnc3N2)cc1 (stereo not shown) | -19.4
38 | CC1(C)CC2=C(CO1)C(=S)NC(c1ccccc1)N2CC1CCCO1 (stereo not shown) | 9
39 | Cc1ccccc1NC(=O)NC1(C(=O)NCCCN2CCOCC2)CCCCC1 | 0.22
40 | COc1ccc(-c2nc(SCC(=O)NC3CCCC3)c(-c3ccc(OC)cc3)[nH]2)cc1 | -4.56
41 | N/C(CSc1ccc(Cl)cc1)=N\NC(=O)c1ccncc1 | -2.79
42 | COc1ccc(Cl)cc1CNCCCSc1ncccn1.Cl | 1.74
43 | COCc1cc(=O)[nH]c(Nc2nc(C)c3cc(OC)ccc3n2)n1 | 7.05
44 | CC(COc1ccc(/C=C/c2ccccc2)cc1)[N+](C)(C)C.[I-] (stereo not shown) | -9.04

Row | Structure (SMILES) | hERG current change (%, negative = inhibition) at 10uM [%]
45 | CC(=O)c1cccc(NCC(=O)c2ccc(C)c([N+](=O)[O-])c2)c1 | -4.73
46 | Cc1ccccc1Cn1cc(NC(=O)c2nn(C)cc2Cl)cn1 | 1.58
47 | COc1ccc(N(CC(=O)N/N=C(\C)c2ccc(OC)c(OC)c2)S(=O)(=O)c2ccccc2)cc1 | 19.8
48 | Cc1cccc(C)c1NC(=O)CSCc1cccc(CSCC(=O)Nc2c(C)cccc2C)n1 | 20.5
49 | COc1ccc(N2CCN(C(c3ccccc3OC)c3nnnn3Cc3ccco3)CC2)cc1 (stereo not shown) | -6.24
50 | CCCCn1c(N)c(N(CC(C)C)C(=O)c2ccco2)c(=O)[nH]c1=O | 10.4
51 | CCN(CC)C(=O)c1ccc(Oc2ccc([N+](=O)[O-])cc2Cl)cc1 | -17.2
52 | COc1ccc(S(=O)(=O)N2CCN(C(=O)CSC(=S)N3CCCC3)CC2)cc1 | -19.6
53 | O=C(COC(=O)C1CC2C=CC1C2)Nc1ccccc1F (stereo not shown) | -1.38
54 | Cc1ccccc1OC(C)C(=O)N1CCN(c2ccccn2)CC1 (stereo not shown) | -8.24
55 | O=C(CCNC(=O)c1ccc(Cl)cc1)Nc1ccncc1 | -9.37
56 | CC1(C)CNC(=O)c2sc(N3CCCCC3)nc2C1 | 1.87
57 | Cc1[nH]c2ccccc2c1C(=O)CN1C(=O)NC2(CC(C)CC(C)(C)C2)C1=O (stereo not shown) | -2.43
58 | Cc1ccc(N=Cc2c(O)ccc3ccccc23)cc1F | 23.8
59 | Nc1ccc(NC(=O)c2cccc(C(=O)Nc3ccc(N)cc3Cl)c2)c(Cl)c1 | 22
60 | CCc1ccccc1OCCCOc1ccc(OC)cc1 | 14.1
61 | Cc1ccc(-c2nn(-c3ccccc3)cc2C(=O)N2CCN(C3CCS(=O)(=O)C3)CC2)cc1 (stereo not shown) | -68.8
62 | CCC(C(=O)NC(C)(C)C)N(Cc1ccco1)C(=O)Cn1nnc(-c2ccc(F)cc2)n1 (stereo not shown) | -42.2
63 | Cn1cccc1Cc1nnc(SCC(=O)N2CCOCC2)n1CCc1ccccc1 | -0.335
64 | O=C(COc1ccccc1C(=O)Nc1ccccc1)c1ccc(F)cc1 | 6.1
65 | COCCN(C(=O)COC(=O)/C=C/c1cccs1)c1c(N)n(Cc2ccccc2)c(=O)[nH]c1=O | 25.1
66 | O=C(Nc1ccc(Br)cc1)c1ccc2ncsc2c1 | 5.07

Row | Structure (SMILES) | hERG current change (%, negative = inhibition) at 10uM [%]
67 | CCCCN1C(=O)C(=O)N(CC(=O)Nc2cc(OCC)c(N3CCOCC3)cc2OCC)C1=O | -27
68 | O=[N+]([O-])c1ccc(Oc2ccc(S(=O)(=O)N3CCCCC3)cc2)cc1 | -31.9
69 | COc1ccc(C(CC(=O)c2ccccc2)C2CCCCC2=O)cc1 (stereo not shown) | -2.89
70 | COC(=O)COc1ccc(S(=O)(=O)NCc2cccnc2)cc1C | 15.3
71 | CCCCCSc1nc(N2CCOCC2)c2c(c1C#N)CC(C)(C)OC2 | -2.7
72 | S=C(NC1CCCC1)N1CCN(c2ncccn2)CC1 | -19.3
73 | CCCCC1CCC(C(=O)Nc2ccc(N3CCOCC3)cc2N2CCOCC2)CC1 (stereo not shown) | -33.9
74 | COC(=O)c1[nH]c2cc(OC)ccc2c1NC(=O)c1c(F)cccc1F | 2.79
75 | COc1ccc([N+](=O)[O-])cc1NC(=S)NC(=O)C(C)(C)C | 7.53
76 | C=CCNC(=O)c1onc(CSc2cccc3ccccc23)c1C(=O)O | 6.34
77 | c1cn(-c2ncnc3sc4c(c23)CCCC4)cn1 | -3.98
78 | Cn1cc(C(=O)Nc2ccc(Cl)c(Cl)c2)cn1 | -31.9
79 | Cc1ccc(CN2C(=O)CNC2=S)cc1 | 9.68
80 | Cc1ccc(C(=O)Nc2ccccc2N2CCCCC2)cc1[N+](=O)[O-] | -1.26
81 | Cc1cc(OC(=O)c2ccc3ccccc3c2)c([N+](=O)[O-])c(=O)[nH]1 | 22.1
82 | CC1(C)CN=C(Nc2nc3ccccc3s2)S1 | -9.65
83 | O=C(c1ccc(N2CCOCC2)c([N+](=O)[O-])c1)N1CCCC(C(F)(F)F)C1 (stereo not shown) | 2.23
84 | CC(C)(CNC(=O)CCC1CCCC1)CNC(=O)CCC1CCCC1 | -27.9
85 | O=C(CN1C(=O)/C(=C/c2ccccc2F)Sc2ccccc21)NCc1cccnc1 | -30.7
86 | COC(=O)Cc1ccc(OC(=O)CCS(=O)(=O)c2ccc(Cl)cc2)cc1 | 22
87 | Cc1cc(C)c(S(=O)(=O)N2CCCOC2CNC(=O)C(=O)NCc2ccccn2)c(C)c1 (stereo not shown) | -11.9
88 | CCCOc1ccc(CNC(=S)NCc2ccc(OC(C)C)cc2)cc1 | 3.51
